According to PubChem BioAssay AID624417 (National Center for Advancing Translational Sciences (NCATS), 2012):
The campaign covered roughly 410,000 compounds. About 6,400 (1.6%) were called active. Inconclusive results, whose numbers are uncertain, are shown with a selection of clear calls. Calls come from the whole dose curve; as a rule, active = well fitted inhibition curve with a large enough effect; inconclusive = small, poorly fitted or top-dose-only effect; inactive = no such curve, though single readings can be large or run the other way. No potency is given beside an inconclusive call; the fits are too rough.

These molecules were tested against Glucagon-like peptide 1 receptor (Homo sapiens) (UniProt P43220) (assay: qHTS of GLP-1 Receptor Inverse Agonists (Inhibition Mode)). Conditions: HEK293 GLP-1R CRE-luciferase, luminescence, 24 h, GLP-1R form is constitutively active; series mostly up to 38.3 µM.
Outline: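 Inverse agonists were sought by their lowering of basal cAMP reporter luciferase output in HEK293 cells stably carrying constitutively active human GLP-1R, after 24 h compound treatment.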
Note: nearly all actives have a fitted effect of over 55% in size.
Potency is the fitted concentration of half-maximal effect; tags give direction and shape of the fitted curve.

Chain of UniProt P43220 (P43220 whole entry, looked up): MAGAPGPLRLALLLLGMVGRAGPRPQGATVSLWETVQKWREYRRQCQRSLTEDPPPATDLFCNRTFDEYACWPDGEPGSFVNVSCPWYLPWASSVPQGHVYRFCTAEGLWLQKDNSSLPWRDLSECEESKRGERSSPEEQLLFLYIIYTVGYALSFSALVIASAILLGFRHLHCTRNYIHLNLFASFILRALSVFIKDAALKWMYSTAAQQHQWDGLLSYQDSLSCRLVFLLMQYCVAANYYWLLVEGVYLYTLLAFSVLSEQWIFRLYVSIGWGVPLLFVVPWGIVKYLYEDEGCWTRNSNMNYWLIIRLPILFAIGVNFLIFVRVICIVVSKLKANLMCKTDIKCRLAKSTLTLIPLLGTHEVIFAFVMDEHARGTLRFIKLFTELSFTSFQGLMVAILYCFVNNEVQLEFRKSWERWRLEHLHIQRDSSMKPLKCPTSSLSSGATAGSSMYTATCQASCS

SMILES	Potency
Cc1ccc(CN2CC(N3CCN(Cc4cccc(C)c4)CC3)CS2(=O)=O)cc1 (stereo not given)	inconclusive [inhibitor, partial curve]
CC(=O)Nc1sc2c(c1C#N)CCCC2	inactive
COC(=O)c1c(NC(=O)CCc2ccc(C)o2)sc(C)c1C	inconclusive [inhibitor, partial curve, poor fit]
O=C(COC(=O)/C=C/c1cccc(C(F)(F)F)c1)NCc1ccco1	inconclusive [inhibitor, single point]
CCN1C(=O)CSC1=Nc1ccc(Cl)c(Cl)c1	inconclusive [inhibitor, single point]
O=C(O)CSc1nnc(NC(=O)c2ccc3c(c2)OCO3)s1	inconclusive [inhibitor, partial curve, poor fit]
Nc1ncnc2c1ncn2[C@@H]1O[C@H](CNCc2c(OCc3ccccc3F)ccc3ccccc23)[C@@H](O)[C@H]1O	inconclusive [inhibitor, single point]
CCOc1ccccc1-n1c(=S)sc2c(=O)n(-c3ccccc3)c(=S)[nH]c21	inconclusive [inhibitor, single point]
COc1ccc(N2CCN(C(=O)c3ccc(C(C)(C)C)cc3)CC2)cc1	inconclusive [inhibitor, single point]
COc1ccc(OC)c(NC(=O)C(=S)NC2CCCCC2)c1	inconclusive [inhibitor, partial curve, poor fit]
CSc1ccc(CNC(=O)Cc2csc3ccccc23)cc1	inactive
Cc1c(NC(=O)CSc2ccc(Cl)cc2)cccc1-c1nc2ncccc2o1	inconclusive [inhibitor, single point]
Cc1nc2ncccn2c1-c1csc(Nc2ccc(N(C)C)cc2)n1	inconclusive [inhibitor, full curve, poor fit]
CCCCNc1ncnc2c1cnn2-c1ccccc1	inconclusive [inhibitor, partial curve, poor fit]
CSc1ccccc1NC(=O)CN(C)CC(=O)Nc1ccc(Cl)cc1F	inconclusive [inhibitor, single point]
CN1CCN(S(=O)(=O)c2ccc(NC(=S)NC(=O)C3CCCCC3)cc2)CC1	inconclusive [inhibitor, partial curve, poor fit]
O=C(Nc1ccc(N2CCOCC2)cc1Cl)C1CCN(C(=O)OCc2ccccc2)CC1	inconclusive [inhibitor, partial curve]
Cc1cc(NC(=O)CSc2nnc(-c3ccc4c(c3)OCCO4)o2)no1	inconclusive [inhibitor, partial curve, poor fit]
Cc1noc(C)c1CSCC(=O)N1CCN(c2ccc([N+](=O)[O-])cc2)CC1	inactive
CC(=O)Nc1ccc(S(=O)(=O)NCC2CCC(C(=O)NCc3ccccc3Cl)CC2)cc1 (stereo not given)	inactive
Cc1ccc(C)c(N2CCN(S(=O)(=O)CC34CCC(CC3=O)C4(C)C)CC2)c1 (stereo not given)	inconclusive [inhibitor, single point]
COc1cc(NC(=O)Cn2c(=O)n(CC(=O)NCCc3ccc(OC)c(OC)c3)c(=O)c3sccc32)cc(OC)c1	inactive

SMILES	Potency
Cc1cc(C(=O)CN2c3cccc4cccc(c34)S2(=O)=O)c(C)n1C	inconclusive [inhibitor, full curve]
CCC(=O)Nc1cc2c(cc1Cl)-c1ccccc1C2	inactive
O=C(CC1C(=O)Nc2ccccc2N1CC(=O)N1CCCC1)Nc1ccc(Br)cc1 (stereo not given)	inconclusive [inhibitor, single point]
Fc1ccc(Nc2nc(N/N=C/c3ccco3)nc(N3CCCCC3)n2)cc1	inconclusive [inhibitor, partial curve, poor fit]
CCc1ccc(OCCOCCN2CCN(C)CC2)cc1	inconclusive [inhibitor, single point]
CCNS(=O)(=O)c1ccc(CCC(=O)N2CCN(c3cccc(Cl)c3)CC2)cc1	inconclusive [inhibitor, partial curve, poor fit]
Cc1cccc(C(=O)NC2CCN(CC(=O)Nc3cccc(Cl)c3)CC2)c1	inconclusive [inhibitor, partial curve, poor fit]
O=C(NCc1ccccc1)C(CCc1ccccc1)n1c(=O)c(-c2ccccc2)nc2ccccc21 (stereo not given)	inconclusive [inhibitor, single point]
Cc1ccc(NC(=O)CN2c3ccccc3S(=O)(=O)c3ccccc32)cc1F	inconclusive [inhibitor, single point]
CCN(C(=O)c1sc2cc(OC)ccc2c1Cl)c1ccccc1	inconclusive [inhibitor, partial curve, poor fit]
O=C(NCc1ccccn1)c1cc(-c2ccccc2)nc2ccccc12	inactive
CCC(=O)N1CCN(c2ccccc2NC(=S)NC(=O)c2cccc([N+](=O)[O-])c2)CC1	inconclusive [inhibitor, single point]
O=C(NN(C(=O)c1ccccc1)c1ccccc1)c1ccccc1	inconclusive [inhibitor, single point]
CN(CC1CCOCC1)C(=O)c1ccc2nc(Cc3cccc(Cl)c3)oc2c1	inconclusive [inhibitor, single point]
Cc1cccc(-c2nnc(NC(=O)c3ccc(Cl)cc3)o2)c1	inactive
COc1ccc(CNC(=O)CN(C(=O)c2csnn2)c2cccc3ccccc23)cc1	inconclusive [inhibitor, partial curve, poor fit]
Cc1ccc(C(=O)NCC(=O)OCCCn2c(=O)[nH]c3ccccc32)cc1	inactive
COc1cccc(NC(=O)Nc2ccccc2Br)c1	inconclusive [inhibitor, partial curve, poor fit]
Cc1ccc(NC(=O)/C(C#N)=C/c2ccccc2Cl)cc1C	inactive
Cc1nc(C(F)(F)F)c(C(=O)NC(=O)Nc2ccc(OC(F)(F)F)cc2)s1	inconclusive [inhibitor, partial curve, poor fit]
CCOc1ccccc1NC(=O)NCCCCc1ccccc1	inconclusive [inhibitor, full curve, poor fit]
Cc1cccc2c1NC(=O)C2=O	inactive

SMILES	Potency
O=C(CN1CCN(Cc2ccccc2)CC1)Nc1cccc(S(=O)(=O)N2CCCCCC2)c1	inconclusive [inhibitor, partial curve, poor fit]
CC1CCCCC1NC(=O)CN1C(=O)NC(C)(c2cccc(Br)c2)C1=O (stereo not given)	inconclusive [inhibitor, partial curve, poor fit]
O=C(Cc1cccc(NC(=O)C2CCCN(C(=O)C3CCC3)C2)c1)Nc1cccc(C(=O)N2CCCCC2)c1 (stereo not given)	inactive
Cc1ccc(C2=NC(c3ccc(F)cc3)=Nc3ccc(C)cc3N2)cc1	inactive
CC1CCCC(NC(=O)c2cccc(S(=O)(=O)N3CCN(c4ccccc4)CC3)c2)C1C (stereo not given)	inactive
Cc1ccccc1C1c2[nH]c3ccccc3c2C[C@H]2C(=O)N(C3CC3)CC(=O)N12 (stereo not given in full)	inconclusive [inhibitor, partial curve, poor fit]
c1ccc(CNc2nc(NCc3ccccc3)c3sccc3n2)cc1	inconclusive [inhibitor, partial curve, poor fit]
COc1ccc(OC)c(-c2cnc(OC(C)(C)C)nc2OC(C)(C)C)c1	inconclusive [inhibitor, partial curve, poor fit]
COc1cccc(N2CC(O)Cn3c2nc2c3c(=O)n(CCCc3ccccc3)c(=O)n2C)c1 (stereo not given)	inconclusive [inhibitor, partial curve, poor fit]
Cc1ccc(S(=O)(=O)N2CCN(Cc3ccccc3)CC2)c(C)c1NS(C)(=O)=O	inactive
O=C(Nc1ccccc1)c1cc(C2CCCN(C(=O)OCc3ccccc3)C2)on1 (stereo not given)	inconclusive [inhibitor, single point]
O=C(COC(=O)C1(c2ccc(Cl)cc2)CCCC1)NC1CCS(=O)(=O)C1 (stereo not given)	inconclusive [inhibitor, partial curve]
CCOc1cccc(/C=C/c2ccc3cccc(O)c3n2)c1O	inconclusive [inhibitor, single point]
O=S(=O)(c1ccc(Br)cc1F)N1CCCCC1CCO (stereo not given)	inconclusive [inhibitor, full curve, poor fit]
CC1CCN(CCCNC(=O)CN2C(=O)CSc3ccc(S(=O)(=O)N4CCC(C)CC4)cc32)CC1	inconclusive [inhibitor, single point]
CC(Oc1ccc(Cl)cc1Cl)C(=O)NC1=NN(c2ccccc2)C(=O)C1 (stereo not given)	inconclusive [inhibitor, single point]
CC1CCCCN1C(=O)c1ccc(NC(=O)c2ccccc2Cl)cc1 (stereo not given)	inconclusive [inhibitor, partial curve, poor fit]
O=C1C=C(N2CCOCC2)c2ccccc2C1=O	inconclusive [inhibitor, single point]
O=C(NCc1ccc(F)cc1)c1cnc(N2CCOCC2)c2ccccc12	inactive
Cc1ccc(S(=O)(=O)c2cnc(SCC(=O)Nc3ccccc3C(F)(F)F)[nH]c2=O)cc1C	inactive
OC(COC(c1ccc(F)cc1)c1ccc(F)cc1)CN1CCCC(C(F)(F)F)C1 (stereo not given)	inconclusive [inhibitor, single point]
